Experimental data: patent US9676788B2, “Aza-epoxy-guaiane derivatives and treatment of cancer” (The United States of America, as represented by the …, priority 2014, dated 2017)

Key:
COLO205 = test: NCI 60-cell line protocol, Colon Cancer COLO205; conditions: single dose 10 μM, two days exposure, SRB endpoint
SK-OV-3 = test: NCI 60-cell line protocol, Ovarian Cancer SK-OV-3; conditions: SK-OV-3 (Ovarian Cancer); single dose 10 μM; two days exposure; SRB endpoint
HOP-92 = HOP-92 (Non-Small Cell Lung Cancer); single dose 10 μM; two days exposure; SRB endpoint
A549/ATCC = A549/ATCC (Non-Small Cell Lung Cancer); single dose 10 μM; two days exposure; SRB endpoint
IGROVI = test: NCI 60-cell line protocol, Ovarian Cancer IGROVI; conditions: single dose 10 μM, two days exposure, SRB endpoint
MCF7 = test: NCI 60-cell line protocol, Breast Cancer MCF7; conditions: single dose 10 μM, two days exposure, SRB endpoint
SN12C = test: NCI 60-cell line protocol, Renal Cancer SN12C; conditions: single dose 10 μM, two days exposure, SRB endpoint
SF-295 = test: NCI 60-cell line protocol, CNS Cancer SF-295; conditions: SF-295 (CNS Cancer); single dose 10 μM; two days exposure; SRB endpoint
SNB-75 = test: NCI 60-cell line protocol, CNS Cancer SNB-75; conditions: SNB-75 (CNS Cancer); single dose 10 μM; two days exposure; SRB endpoint
OVCAR-5 = test: NCI 60-cell line protocol, Ovarian Cancer OVCAR-5; conditions: OVCAR-5 (Ovarian Cancer); single dose 10 μM; two days exposure; SRB endpoint
SF-268 = test: NCI 60-cell line protocol, CNS Cancer SF-268; conditions: SF-268 (CNS Cancer); single dose 10 μM; two days exposure; SRB endpoint
NCI-H522 = NCI-H522 (Non-Small Cell Lung Cancer); single dose 10 μM; two days exposure; SRB endpoint
NCI/ADR-RES = test: NCI 60-cell line protocol, Ovarian Cancer NCI/ADR-RES; conditions: single dose 10 μM, two days exposure, SRB endpoint
ACHN (renal cancer) = test: NCI 60-cell line protocol, Renal Cancer ACHN; format: cell-based, human; conditions: single dose 10 μM, two days exposure, SRB endpoint
A498 (renal cancer) = test: NCI 60-cell line protocol, Renal Cancer A498; format: cell-based, human; conditions: single dose 10 μM, two days exposure, SRB endpoint
OVCAR-8 = test: NCI 60-cell line protocol, Ovarian Cancer OVCAR-8; conditions: OVCAR-8 (Ovarian Cancer); single dose 10 μM; two days exposure; SRB endpoint
KM12 = test: NCI 60-cell line protocol, Colon Cancer KM12; conditions: single dose 10 μM, two days exposure, SRB endpoint
SW-620 = test: NCI 60-cell line protocol, Colon Cancer SW-620; conditions: SW-620 (Colon Cancer); single dose 10 μM; two days exposure; SRB endpoint
786-0 = test: NCI 60-cell line protocol, Renal Cancer 786-0; conditions: 786-0 (Renal Cancer); single dose 10 μM; two days exposure; SRB endpoint
HCC-2998 = test: NCI 60-cell line protocol, Colon Cancer HCC-2998; conditions: HCC-2998 (Colon Cancer); single dose 10 μM; two days exposure; SRB endpoint
OVCAR-3 = test: NCI 60-cell line protocol, Ovarian Cancer OVCAR-3; conditions: OVCAR-3 (Ovarian Cancer); single dose 10 μM; two days exposure; SRB endpoint
HS 578T (breast cancer) = test: NCI 60-cell line protocol, Breast Cancer HS 578T; format: cell-based, human; conditions: single dose 10 μM, two days exposure, SRB endpoint
HCT-15 = test: NCI 60-cell line protocol, Colon Cancer HCT-15; conditions: HCT-15 (Colon Cancer); single dose 10 μM; two days exposure; SRB endpoint
NCI-H460 = NCI-H460 (Non-Small Cell Lung Cancer); single dose 10 μM; two days exposure; SRB endpoint
U0-31 = test: NCI 60-cell line protocol, Renal Cancer U0-31; conditions: U031 / U0-31 (Renal Cancer); single dose 10 μM; two days exposure; SRB endpoint
MDA-MB-231/ATCC = test: NCI 60-cell line protocol, Breast Cancer MDA-MB-231/ATCC; conditions: MDA-MB-231/ATCC (Breast Cancer); single dose 10 μM; two days exposure; SRB endpoint
HOP-62 = HOP-62 (Non-Small Cell Lung Cancer); single dose 10 μM; two days exposure; SRB endpoint
U251 = test: NCI 60-cell line protocol, CNS Cancer U251; conditions: single dose 10 μM, two days exposure, SRB endpoint
T-47D = test: NCI 60-cell line protocol, Breast Cancer T-47D; conditions: T-470 / T-47D (Breast Cancer); single dose 10 μM; two days exposure; SRB endpoint
BT-549 = test: NCI 60-cell line protocol, Breast Cancer BT-549; conditions: BT-549 (Breast Cancer); single dose 10 μM; two days exposure; SRB endpoint
HCT-116 = test: NCI 60-cell line protocol, Colon Cancer HCT-116; conditions: HCT-116 (Colon Cancer); single dose 10 μM; two days exposure; SRB endpoint
SNB-19 = test: NCI 60-cell line protocol, CNS Cancer SNB-19; conditions: SNB-19 (CNS Cancer); single dose 10 μM; two days exposure; SRB endpoint
CAKI-1 = test: NCI 60-cell line protocol, Renal Cancer CAKI-1; conditions: CAKI-1 (Renal Cancer); single dose 10 μM; two days exposure; SRB endpoint
OVCAR-4 = test: NCI 60-cell line protocol, Ovarian Cancer OVCAR-4; format: cell-based, human; conditions: OVCAR-4 (Ovarian Cancer); single dose 10 μM; two days exposure; SRB endpoint
NCI-H226 = NCI-H226 (Non-Small Cell Lung Cancer); single dose 10 μM; two days exposure; SRB endpoint
HT29 = test: NCI 60-cell line protocol, Colon Cancer HT29; conditions: single dose 10 μM, two days exposure, SRB endpoint
PC-3 = test: NCI 60-cell line protocol, Prostate Cancer PC-3; conditions: PC-3 (Prostate Cancer); single dose 10 μM; two days exposure; SRB endpoint
TK-10 = test: NCI 60-cell line protocol, Renal Cancer TK-10; conditions: TK-10 (Renal Cancer); single dose 10 μM; two days exposure; SRB endpoint
NCI-H322M = conditions: single dose 10 μM, two days exposure, SRB endpoint
SF-539 = test: NCI 60-cell line protocol, CNS Cancer SF-539; conditions: SF-539 (CNS Cancer); single dose 10 μM; two days exposure; SRB endpoint
DU-145 = test: NCI 60-cell line protocol, Prostate Cancer DU-145; conditions: DU-145 (Prostate Cancer); single dose 10 μM; two days exposure; SRB endpoint
NCI-H23 = NCI-H23 (Non-Small Cell Lung Cancer); single dose 10 μM; two days exposure; SRB endpoint
RXF 393 = test: NCI 60-cell line protocol, Renal Cancer RXF 393; format: cell-based, human; conditions: RXF 393 (Renal Cancer); single dose 10 μM; two days exposure; SRB endpoint
MDA-MB-468 = test: NCI 60-cell line protocol, Breast Cancer MDA-MB-468; format: cell-based, human; conditions: MDA-MB-468 (Breast Cancer); single dose 10 μM; two days exposure; SRB endpoint

## CC1CCC2C1C(OC(=O)/C=C/c1ccccc1)C1(C(C)C)CC(NC(=O)CF)C2(C)O1 (stereo not drawn) [Compound 31]
COLO205
  Growth Percent: 103.21%
SK-OV-3
  Growth Percent: 91.26%
HOP-92
  Growth Percent: 75.85%
A549/ATCC
  Growth Percent: 94.42%
IGROVI
  Growth Percent: 103.48%
MCF7
  Growth Percent: 105.67%
SN12C
  Growth Percent: 103.21%
SF-295
  Growth Percent: 104.84%
SNB-75
  Growth Percent: 87.93%
OVCAR-5
  Growth Percent: 101.93%
SF-268
  Growth Percent: 97.74%
NCI-H522
  Growth Percent: 102.51%
NCI/ADR-RES
  Growth Percent: 98.53%
ACHN (renal cancer)
  Growth Percent: 104.52%
A498 (renal cancer)
  Growth Percent: 83.31%
OVCAR-8
  Growth Percent: 107.04%
KM12
  Growth Percent: 103.52%
SW-620
  Growth Percent: 100.57%
786-0
  Growth Percent: 97.31%
HCC-2998
  Growth Percent: 107.28%
OVCAR-3
  Growth Percent: 114.72%
HS 578T (breast cancer)
  Growth Percent: 92.63%
HCT-15
  Growth Percent: 102.83%
NCI-H460
  Growth Percent: 103.56%
U0-31
  Growth Percent: 91.08%
MDA-MB-231/ATCC
  Growth Percent: 101.66%
HOP-62
  Growth Percent: 90.75%
U251
  Growth Percent: 105.6%
T-47D
  Growth Percent: 78.42%
BT-549
  Growth Percent: 111.03%
HCT-116
  Growth Percent: 87.42%
SNB-19
  Growth Percent: 103.67%
CAKI-1
  Growth Percent: 80.94%
OVCAR-4
  Growth Percent: 104.77%
NCI-H226
  Growth Percent: 84.54%
HT29
  Growth Percent: 108.62%
PC-3
  Growth Percent: 83.98%
TK-10
  Growth Percent: 104.2%
NCI-H322M; NCI-H322M (Non-Small Cell Lung Cancer)
  Growth Percent: 97.44%
SF-539
  Growth Percent: 87.89%
DU-145
  Growth Percent: 114.9%
NCI-H23
  Growth Percent: 101.57%

## C/C(=C\C(=O)OC1C2C(C)CCC2C2(C)OC1(C(C)C)CC2NC(=O)CO)c1ccccc1 (stereo not drawn) [Compound 10]
COLO205
  Growth Percent: 107.4%
SK-OV-3
  Growth Percent: 109.87%
RXF 393
  Growth Percent: 73.51%
HOP-92
  Growth Percent: 87.13%
A549/ATCC
  Growth Percent: 84.13%
IGROVI
  Growth Percent: 104.22%
MCF7
  Growth Percent: 89.73%
SN12C
  Growth Percent: 84.62%
SF-295
  Growth Percent: 97.79%
SNB-75
  Growth Percent: 102.12%
OVCAR-5
  Growth Percent: 118.88%
SF-268
  Growth Percent: 105.59%
NCI-H522
  Growth Percent: 92.53%
NCI/ADR-RES
  Growth Percent: 72.19%
ACHN (renal cancer)
  Growth Percent: 27.88%
A498 (renal cancer)
  Growth Percent: −24.59%
OVCAR-8
  Growth Percent: 61.25%
KM12
  Growth Percent: 111.83%
SW-620
  Growth Percent: 103.14%
786-0
  Growth Percent: 93.47%
HCC-2998
  Growth Percent: 103.84%
HS 578T (breast cancer)
  Growth Percent: −8.92%
HCT-15
  Growth Percent: 99.96%
NCI-H460
  Growth Percent: 105.67%
U0-31
  Growth Percent: 17.49%
MDA-MB-231/ATCC
  Growth Percent: 99.61%
HOP-62
  Growth Percent: 97.57%
U251
  Growth Percent: 91.84%
T-47D
  Growth Percent: 89.34%
BT-549
  Growth Percent: 116.58%
HCT-116
  Growth Percent: 100.8%
SNB-19
  Growth Percent: 108.35%
CAKI-1
  Growth Percent: 99.02%
MDA-MB-468
  Growth Percent: 101.49%
NCI-H226
  Growth Percent: 90.67%
HT29
  Growth Percent: 98.69%
PC-3
  Growth Percent: 83.12%
TK-10
  Growth Percent: 109.09%
NCI-H322M; […]
  Growth Percent: 105.1%
SF-539
  Growth Percent: 91.23%
DU-145
  Growth Percent: 118.84%
NCI-H23
  Growth Percent: 97.74%

Like-named read-outs stand apart in the source and are kept apart here.
